Measured values published in the supplement of paper PMC11417369.
The list shows a part of the results.

Tested on: PfHDP1 homeodomain (GST-tagged)
Experiment: gcPBM binding intensity (ln(normalized median fluorescence intensity)); higher = stronger DNA binding
In short: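 The binding buffer was 1× PBS containing 1% milk, 0.2 mg/ml BSA, 0.5% salmon testes DNA and 0.03% Triton X-100. In it, GST-tagged P. falciparum DNA-binding domains expressed in E. coli were applied for 1 h to an Agilent 4 × 180k array of primer-extended double-stranded 36-bp intergenic genomic probes plus negative controls. Binding intensity, read with Alexa488 anti-GST antibody and a 488 nm scan, is the highest Masliner-normalised natural-log median intensity across replicate spots of either probe orientation.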

“ATATAATAGTTATATTGTACATAAATTATACACCTT [XGTACX_site628]” was tested. Which “gcPBM binding intensity (ln)” value did it give?
Its value is 6.33.

“GACAAAAAATTAAAATAAAATAATAATATAATAAAA [GTGCAC_negctrl_site234]” was tested. Which “gcPBM binding intensity (ln)” value did it give?
The value was 6.2.

For “ATACGCACACATATATGTACATATTGTATATATATA [XGTACX_site3962]”, which “gcPBM binding intensity (ln)” value is on record?
The value was 8.34.

With “TATAAACACCCATATAAACACACATATAAACCAACA [CACACA_site8790]” as the sequence, how does the “gcPBM binding intensity (ln)” value read?
The value was 6.95.

Which “gcPBM binding intensity (ln)” value does the source give for “ATAATTAATAAATAATGTACATATATATTATATTTT [XGTACX_site8546]” here?
The value was 6.3.

For “TGTGAAGTACCGAATGTGCACTGTGTGTGTTCTTTT [GTGCAC_site9613]”, which “gcPBM binding intensity (ln)” value is on record?
Its value is 9.07.

How did the “gcPBM binding intensity (ln)” value turn out when “TTTTTTTTTTTTTTTTTTTCTATTTTACTGTTTCGT [CACACA_negctrl_site850]” was run?
Its value is 6.18.

“TTAAAAAAAAAACACACACACATACACATATATATA [CACACA_site3299]” was tested. Which “gcPBM binding intensity (ln)” value did it give?
The value was 7.04.

“TATATATATGGACACACACACATATAAATAAATAAA [CACACA_site4406]” was tested. Which “gcPBM binding intensity (ln)” value did it give?
The value was 6.84.

With “TTTTTATATTTTTGCACACATTCTTTACTCTTCAAA [CACACA_site2210]” as the sequence, how does the “gcPBM binding intensity (ln)” value read?
The value was 10.4.

With “ATAGCTGTATTTAATACACACAAAACTTTCATTCCA [CACACA_site5868]” as the sequence, how does the “gcPBM binding intensity (ln)” value read?
Its value is 6.71.

Which “gcPBM binding intensity (ln)” value does the source give for “GAGTGAGCTAATAAAAGTACGTAATAAACAAACGCA [XGTACX_site131]” here?
The value was 6.52.

For “ACCATGAAAATATTATGTACATATGTATTATATATA [XGTACX_site408]”, which “gcPBM binding intensity (ln)” value is on record?
Its value is 6.64.

“TTTTTTTGTTTTGTTTTTTTTTTTTTTTTTTTTTTG [CACACA_negctrl_site570]” was tested. Which “gcPBM binding intensity (ln)” value did it give?
The value was 5.67.

For “TTACCGTAAAAATTTTGTACATAAAATAATATATAA [XGTACX_site532]”, which “gcPBM binding intensity (ln)” value is on record?
Its value is 6.61.

Which “gcPBM binding intensity (ln)” value does the source give for “GATATAAAATATTGGTGTACTTTTTTTTTTTTTTTT [XGTACX_site7174]” here?
Its value is 6.52.

Which “gcPBM binding intensity (ln)” value does the source give for “GTATGTGTGTCAAGTCGTACTTACCTTTAAATTTTT [XGTACX_site2507]” here?
Its value is 6.78.

For “CACATACATATATATACACACAAATATATATACACA [CACACA_site8164]”, which “gcPBM binding intensity (ln)” value is on record?
Its value is 7.04.

How did the “gcPBM binding intensity (ln)” value turn out when “ATTATTTTAATTTTAATTTTTTTTTTTTTTTGTTTT [CACACA_negctrl_site1063]” was run?
Its value is 6.16.

For “TATTTTTCCATAAAAATTTATATAGAAACAAATAAT [GTGCAC_negctrl_site103]”, which “gcPBM binding intensity (ln)” value is on record?
The value was 6.46.

Which “gcPBM binding intensity (ln)” value does the source give for “CCCTTTTATTAAAATTCACACACATAAATTTTTATA [CACACA_site8611]” here?
The value was 6.74.

“TGCTTAATTTACGTGGGTACATACACCTCATATATT [XGTACX_site3093]” was tested. Which “gcPBM binding intensity (ln)” value did it give?
The value was 6.97.

Which “gcPBM binding intensity (ln)” value does the source give for “ATATATGTATATTTTTGTACGCATAAATATATTTTT [XGTACX_site827]” here?
Its value is 6.46.

“TTTTTATACAATTAGACACACACAAAAAGTATATAT [CACACA_site8272]” was tested. Which “gcPBM binding intensity (ln)” value did it give?
The value was 6.81.

Which “gcPBM binding intensity (ln)” value does the source give for “TTAATACATATATATATATTATATATATATATATAT [TGCATGCA_negctrl_site177]” here?
The value was 8.89.

How did the “gcPBM binding intensity (ln)” value turn out when “AAAAAAAATAATAATACACACAATATGATATGTACA [CACACA_site850]” was run?
Its value is 6.38.

How did the “gcPBM binding intensity (ln)” value turn out when “GAATATGAATATTTGCGTACTTATATAACTGTTCTA [XGTACX_site883]” was run?
The value was 6.59.

Which “gcPBM binding intensity (ln)” value does the source give for “ATACACATTCGAAATAACAAAAAAATACATACACAT [GTGCAC_negctrl_site628]” here?
The value was 6.99.

How did the “gcPBM binding intensity (ln)” value turn out when “ATGATTATTTTAAAAAGTACTAATTATTATTTTTTT [XGTACX_site7242]” was run?
Its value is 6.29.

For “TACTATAAGATATATACACACAAGAAATACAAAACG [CACACA_site6764]”, which “gcPBM binding intensity (ln)” value is on record?
The value was 7.47.

For TATATATAAATATATGTGCACTTTTTATATTTATAT, which “gcPBM binding intensity (ln)” value is on record?
Its value is 9.06.

How did the “gcPBM binding intensity (ln)” value turn out when “ATATGGAATAATACGCGTACACACATATATATATTA [XGTACX_site307]” was run?
Its value is 6.76.

How did the “gcPBM binding intensity (ln)” value turn out when “TCTTGATTATATAGTACTACACATTATAAAAAAATT [XGTACX_site2465]” was run?
The value was 6.69.

For “TTTATATCATTACAAGTGCATATCATCATAAATTCT [GTGCAC_site9878]”, which “gcPBM binding intensity (ln)” value is on record?
The value was 7.82.

With “TTCATATATTTAGGACGTACTTTTATATTACTATAT [XGTACX_site6456]” as the sequence, how does the “gcPBM binding intensity (ln)” value read?
Its value is 6.62.

Which “gcPBM binding intensity (ln)” value does the source give for “TTTTAAAAATTAAGTGCATGTCCTTATAAAAAAAAA [TGCATGCA_site845]” here?
Its value is 7.17.

Which “gcPBM binding intensity (ln)” value does the source give for “AAAAAATAGAATATAAAAATAAAGGAATTAAATTAA [XGTACX_negctrl_site420]” here?
The value was 6.2.

With “AATTTTTTTTTAATCATGCACACTGTTAAAAGAATA [CACACA_site1240]” as the sequence, how does the “gcPBM binding intensity (ln)” value read?
Its value is 7.68.

For “ATATATTGGAGCACAACACACACAAGTATATATATG [CACACA_site8435]”, which “gcPBM binding intensity (ln)” value is on record?
The value was 8.11.

With “AAAAAAAAAAAAAACACACAGAACAATATATAAATA [CACACA_site982]” as the sequence, how does the “gcPBM binding intensity (ln)” value read?
Its value is 6.46.

“AAAAAAAAATACAAAATAGCAATAAATACACAAACG [GTGCAC_negctrl_site707]” was tested. Which “gcPBM binding intensity (ln)” value did it give?
Its value is 7.12.

With “ACTACATAATACTATTCACACATTTTTTTTTTTTTT [CACACA_site5794]” as the sequence, how does the “gcPBM binding intensity (ln)” value read?
The value was 6.71.

With “AAAAAAAAAAAAAAAACATGCACAAATTATAAGTGA [TGCATGCA_site378]” as the sequence, how does the “gcPBM binding intensity (ln)” value read?
Its value is 8.34.

“ATAATACCCAAGCACACACACACACCGATATATATA [CACACA_site8344]” was tested. Which “gcPBM binding intensity (ln)” value did it give?
Its value is 7.06.
